# Data published in the supplement of paper PMC4604168 (melanoma cell lines).
# The list shows a part of the results. Most values come without repeats; read them as rough.
# Key:
# Assay in all cases: cell count relative to DMSO control; melanoma cells; higher = more viable cells
# Settings in all cases: library dose: low library concentration; 72 h
# [1] = system: MZ2-MEL
# [2] = system: MeWo
# [3] = system: RPMI7951
# [4] = system: RVH-421
# [5] = system: SkMel28
# [6] = system: SkMel2
# [7] = system: SkMel30
# [8] = system: UACC62
# 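Also: cell number obtained by counting DAPI-stained nuclei in high-throughput microscope images with image analysis software, screen run in 1,536-well plates.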
structure (smiles),measurement,setting,value
"Cc1cc(Nc2cc(N3CCN(C)CC3)nc(Sc3ccc(NC(=O)C4CC4)cc3)n2)n[nH]1 [Tozasertib] + Cn1cnc2c(F)c(Nc3ccc(Br)cc3Cl)c(C(=O)NOCCO)cc21 [selumetinib] (first compound 0.006 µM, partner dose 0.015 µM)",cell count,[1],107%
same,cell count,[2],91.4%
same,cell count,[3],102%
same,cell count,[4],90.7%
same,cell count,[5],101%
same,cell count,[6],94%
same,cell count,[7],81%
same,cell count,[8],87.8%
"N#CC[C@H](C1CCCC1)n1cc(-c2ncnc3[nH]ccc23)cn1 [ruxolitinib] + Clc1ccc(Nc2nnc(Cc3ccncc3)c3ccccc23)cc1 [vatalanib] (first compound 1 µM, partner dose 2 µM)",cell count,[1],90.1%
same,cell count,[2],90.1%
same,cell count,[3],85.4%
same,cell count,[4],81.3%
same,cell count,[5],93.5%
same,cell count,[6],107%
same,cell count,[7],108%
same,cell count,[8],124%
"N#CC[C@H](C1CCCC1)n1cc(-c2ncnc3[nH]ccc23)cn1 [ruxolitinib] + OCc1c[nH]c2ccccc12 [Indole-3-carbinol] (first compound 1 µM, partner dose 0.8 µM)",cell count,[1],98.3%
same,cell count,[2],94%
same,cell count,[3],93.8%
same,cell count,[4],96.7%
same,cell count,[5],95.5%
same,cell count,[6],100%
same,cell count,[7],91.5%
same,cell count,[8],100%
"Cc1cc(Nc2cc(N3CCN(C)CC3)nc(Sc3ccc(NC(=O)C4CC4)cc3)n2)n[nH]1 [Tozasertib] + O=C(O)[C@@H]1[O][Sb](=[O])([O][Sb]2(=[O])[O][C@H]([C@H](O)CO)[C@H](O)[C@H](C(=O)O)[O]2)[O][C@H]([C@H](O)CO)[C@@H]1O [stibogluconate] (first compound 0.006 µM, partner dose 2 µM)",cell count,[1],111%
same,cell count,[2],82.9%
same,cell count,[3],107%
same,cell count,[4],110%
same,cell count,[5],90.3%
same,cell count,[6],98%
same,cell count,[7],82.7%
same,cell count,[8],88.4%
"CC[C@]1(O)C[C@H]2CN(CCc3c([nH]c4ccccc34)[C@@](C(=O)OC)(c3cc4c(cc3OC)N(C=O)[C@H]3[C@@](O)(C(=O)OC)[C@H](OC(C)=O)[C@]5(CC)C=CCN6CC[C@]43[C@@H]65)C2)C1 [vincristine] + C=CCNC1=C2C[C@@H](C)C[C@H](OC)[C@H](O)[C@@H](C)/C=C(\C)[C@H](OC(N)=O)[C@@H](OC)/C=C\C=C(/C)C(=O)NC(=CC1=O)C2=O [Tanespimycin] (first compound 0.0001 µM, partner dose 0.002 µM)",cell count,[1],104%
same,cell count,[2],83.4%
same,cell count,[3],41.4%
same,cell count,[4],75.3%
same,cell count,[5],95.4%
same,cell count,[6],95.9%
same,cell count,[7],53.3%
same,cell count,[8],73%
"Cc1cc(Nc2cc(N3CCN(C)CC3)nc(Sc3ccc(NC(=O)C4CC4)cc3)n2)n[nH]1 [Tozasertib] + CS(=O)(=O)c1ccc(C(=O)Nc2ccc(Cl)c(-c3ccccn3)c2)c(Cl)c1 [vismodegib] (first compound 0.006 µM, partner dose 1 µM)",cell count,[1],97.7%
same,cell count,[2],88.4%
same,cell count,[3],100%
same,cell count,[4],92.3%
same,cell count,[5],91.1%
same,cell count,[6],99.1%
same,cell count,[7],102%
same,cell count,[8],85.2%
"Cc1cc(Nc2cc(N3CCN(C)CC3)nc(Sc3ccc(NC(=O)C4CC4)cc3)n2)n[nH]1 [Tozasertib] + Nc1nc(F)nc2c1ncn2[C@@H]1O[C@H](CO)[C@@H](O)[C@@H]1O [fludarabine] (first compound 0.006 µM, partner dose 0.2 µM)",cell count,[1],97.9%
same,cell count,[2],29.1%
same,cell count,[3],91.7%
same,cell count,[4],78.8%
same,cell count,[5],81.3%
same,cell count,[6],5.45%
same,cell count,[7],17.5%
same,cell count,[8],63.8%
"CC[C@]1(O)C[C@H]2CN(CCc3c([nH]c4ccccc34)[C@@](C(=O)OC)(c3cc4c(cc3OC)N(C=O)[C@H]3[C@@](O)(C(=O)OC)[C@H](OC(C)=O)[C@]5(CC)C=CCN6CC[C@]43[C@@H]65)C2)C1 [vincristine] + COc1cc([C@@H]2c3cc4c(cc3[C@@H](O[C@@H]3O[C@@H]5CO[C@@H](C)O[C@H]5[C@H](O)[C@H]3O)[C@H]3COC(=O)[C@H]23)OCO4)cc(OC)c1O [etoposide] (first compound 0.0001 µM, partner dose 0.02 µM)",cell count,[1],77.8%
same,cell count,[2],82.4%
same,cell count,[3],54.5%
same,cell count,[4],98.5%
same,cell count,[5],69%
same,cell count,[6],84.7%
same,cell count,[7],62.5%
same,cell count,[8],49.1%
"Cc1cc(Nc2cc(N3CCN(C)CC3)nc(Sc3ccc(NC(=O)C4CC4)cc3)n2)n[nH]1 [Tozasertib] + CN1CCN(c2ccc3nc(-c4c(N)c5c(F)cccc5[nH]c4=O)[nH]c3c2)CC1 [Dovitinib] (first compound 0.006 µM, partner dose 0.1 µM)",cell count,[1],95.2%
same,cell count,[2],93.5%
same,cell count,[3],113%
same,cell count,[4],98.6%
same,cell count,[5],107%
same,cell count,[6],100%
same,cell count,[7],76.5%
same,cell count,[8],90.3%
"CC[C@]1(O)C[C@H]2CN(CCc3c([nH]c4ccccc34)[C@@](C(=O)OC)(c3cc4c(cc3OC)N(C=O)[C@H]3[C@@](O)(C(=O)OC)[C@H](OC(C)=O)[C@]5(CC)C=CCN6CC[C@]43[C@@H]65)C2)C1 [vincristine] + CS(=O)(=O)CCNCc1ccc(-c2ccc3ncnc(Nc4ccc(OCc5cccc(F)c5)c(Cl)c4)c3c2)o1 [lapatinib] (first compound 0.0001 µM, partner dose 0.8 µM)",cell count,[1],82.9%
same,cell count,[2],49%
same,cell count,[3],44.8%
same,cell count,[4],60.1%
same,cell count,[5],49%
same,cell count,[6],63.4%
same,cell count,[7],43.2%
same,cell count,[8],34.3%
"Cc1cc(Nc2cc(N3CCN(C)CC3)nc(Sc3ccc(NC(=O)C4CC4)cc3)n2)n[nH]1 [Tozasertib] + OCc1c[nH]c2ccccc12 [Indole-3-carbinol] (first compound 0.006 µM, partner dose 0.8 µM)",cell count,[1],101%
same,cell count,[2],86.7%
same,cell count,[3],106%
same,cell count,[4],86.4%
same,cell count,[5],89.2%
same,cell count,[6],108%
same,cell count,[7],81.2%
same,cell count,[8],78%
"N#CC[C@H](C1CCCC1)n1cc(-c2ncnc3[nH]ccc23)cn1 [ruxolitinib] + CC(C)C[C@H](NC(=O)[C@H](Cc1ccccc1)NC(=O)c1cnccn1)B(O)O [Bortezomib] (first compound 1 µM, partner dose 0.001 µM)",cell count,[1],95.7%
same,cell count,[2],79.2%
same,cell count,[3],107%
same,cell count,[4],78.1%
same,cell count,[5],100%
same,cell count,[6],95.3%
same,cell count,[7],115%
same,cell count,[8],126%
"N#CC[C@H](C1CCCC1)n1cc(-c2ncnc3[nH]ccc23)cn1 [ruxolitinib] + Cc1cc(Nc2cc(N3CCN(C)CC3)nc(/C=C/c3ccccc3)n2)n[nH]1 [ENMD2076] (first compound 1 µM, partner dose 0.04 µM)",cell count,[1],98.6%
same,cell count,[2],101%
same,cell count,[3],80%
same,cell count,[4],72.4%
same,cell count,[5],105%
same,cell count,[6],88.6%
same,cell count,[7],87.7%
same,cell count,[8],113%
"N#CC[C@H](C1CCCC1)n1cc(-c2ncnc3[nH]ccc23)cn1 [ruxolitinib] + CN(c1ncccc1CNc1nc(Nc2ccc3c(c2)CC(=O)N3)ncc1C(F)(F)F)S(C)(=O)=O [PF562271] (first compound 1 µM, partner dose 0.08 µM)",cell count,[1],92.7%
same,cell count,[2],86.1%
same,cell count,[3],71.6%
same,cell count,[4],109%
same,cell count,[5],85.6%
same,cell count,[6],89.6%
same,cell count,[7],95.9%
same,cell count,[8],101%
"N#CC[C@H](C1CCCC1)n1cc(-c2ncnc3[nH]ccc23)cn1 [ruxolitinib] + C[C@]1(O)C[C@@H](c2nc(-c3ccc4ccc(-c5ccccc5)nc4c3)c3c(N)nccn32)C1 [OSI906] (first compound 1 µM, partner dose 0.4 µM)",cell count,[1],107%
same,cell count,[2],93.8%
same,cell count,[3],88.6%
same,cell count,[4],109%
same,cell count,[5],102%
same,cell count,[6],95.2%
same,cell count,[7],90.2%
same,cell count,[8],108%
"Cc1cc(Nc2cc(N3CCN(C)CC3)nc(Sc3ccc(NC(=O)C4CC4)cc3)n2)n[nH]1 [Tozasertib] + CC[C@]1(O)C[C@H]2CN(CCc3c([nH]c4ccccc34)[C@@](C(=O)OC)(c3cc4c(cc3OC)N(C=O)[C@H]3[C@@](O)(C(=O)OC)[C@H](OC(C)=O)[C@]5(CC)C=CCN6CC[C@]43[C@@H]65)C2)C1 [vincristine] (first compound 0.006 µM, partner dose 0.0001 µM)",cell count,[1],94.8%
same,cell count,[2],99.1%
same,cell count,[3],68.3%
same,cell count,[4],117%
same,cell count,[5],93.6%
same,cell count,[6],99%
same,cell count,[7],69.5%
same,cell count,[8],75.6%
"N#CC[C@H](C1CCCC1)n1cc(-c2ncnc3[nH]ccc23)cn1 [ruxolitinib] + Nc1ncn([C@H]2C[C@H](O)[C@@H](CO)O2)c(=O)n1 [decitabine] (first compound 1 µM, partner dose 0.1 µM)",cell count,[1],88.3%
same,cell count,[2],101%
same,cell count,[3],75.6%
same,cell count,[4],73.3%
same,cell count,[5],96.5%
same,cell count,[6],104%
same,cell count,[7],107%
same,cell count,[8],87.7%
"Cc1cc(Nc2cc(N3CCN(C)CC3)nc(Sc3ccc(NC(=O)C4CC4)cc3)n2)n[nH]1 [Tozasertib] + C#Cc1cccc(Nc2ncnc3cc(OCCOC)c(OCCOC)cc23)c1 [erlotinib] (first compound 0.006 µM, partner dose 0.8 µM)",cell count,[1],103%
same,cell count,[2],84.2%
same,cell count,[3],118%
same,cell count,[4],88.7%
same,cell count,[5],103%
same,cell count,[6],93.4%
same,cell count,[7],81.4%
same,cell count,[8],79.8%
"N#CC[C@H](C1CCCC1)n1cc(-c2ncnc3[nH]ccc23)cn1 [ruxolitinib] + Cn1c(Nc2ccc(C(F)(F)F)cc2)nc2cc(Oc3ccnc(-c4ncc(C(F)(F)F)[nH]4)c3)ccc21 [CHIR265] (first compound 1 µM, partner dose 0.08 µM)",cell count,[1],92.8%
same,cell count,[2],89%
same,cell count,[3],72.1%
same,cell count,[4],65.7%
same,cell count,[5],101%
same,cell count,[6],91.9%
same,cell count,[7],65.7%
same,cell count,[8],98.5%
"CC[C@]1(O)C[C@H]2CN(CCc3c([nH]c4ccccc34)[C@@](C(=O)OC)(c3cc4c(cc3OC)N(C=O)[C@H]3[C@@](O)(C(=O)OC)[C@H](OC(C)=O)[C@]5(CC)C=CCN6CC[C@]43[C@@H]65)C2)C1 [vincristine] + C[C@]1(O)C[C@@H](c2nc(-c3ccc4ccc(-c5ccccc5)nc4c3)c3c(N)nccn32)C1 [OSI906] (first compound 0.0001 µM, partner dose 0.4 µM)",cell count,[1],106%
same,cell count,[2],95.2%
same,cell count,[3],94.4%
same,cell count,[4],101%
same,cell count,[5],104%
same,cell count,[6],96.4%
same,cell count,[7],75.7%
same,cell count,[8],113%
